# Measurements published in PMC4336329 (PLoS ONE, 2015).
# The whole screen tested about 310,000 compounds, of which about 14,000 (4.5%) showed an effect of 50% or more. Effects have a minus sign here. This is one part of the list.
# Target: human ether-à-go-go-related gene (hERG) potassium channel (human, UniProt Q12809)
# Experiment: primary screen, population patch clamp on CHO cells stably expressing hERG
# 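Also: peak tail current of the secondary pulse compared with the same well before compound.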
# human ether-à-go-go-related gene (hERG) potassium channel, sequence (Q12809 whole entry, looked up): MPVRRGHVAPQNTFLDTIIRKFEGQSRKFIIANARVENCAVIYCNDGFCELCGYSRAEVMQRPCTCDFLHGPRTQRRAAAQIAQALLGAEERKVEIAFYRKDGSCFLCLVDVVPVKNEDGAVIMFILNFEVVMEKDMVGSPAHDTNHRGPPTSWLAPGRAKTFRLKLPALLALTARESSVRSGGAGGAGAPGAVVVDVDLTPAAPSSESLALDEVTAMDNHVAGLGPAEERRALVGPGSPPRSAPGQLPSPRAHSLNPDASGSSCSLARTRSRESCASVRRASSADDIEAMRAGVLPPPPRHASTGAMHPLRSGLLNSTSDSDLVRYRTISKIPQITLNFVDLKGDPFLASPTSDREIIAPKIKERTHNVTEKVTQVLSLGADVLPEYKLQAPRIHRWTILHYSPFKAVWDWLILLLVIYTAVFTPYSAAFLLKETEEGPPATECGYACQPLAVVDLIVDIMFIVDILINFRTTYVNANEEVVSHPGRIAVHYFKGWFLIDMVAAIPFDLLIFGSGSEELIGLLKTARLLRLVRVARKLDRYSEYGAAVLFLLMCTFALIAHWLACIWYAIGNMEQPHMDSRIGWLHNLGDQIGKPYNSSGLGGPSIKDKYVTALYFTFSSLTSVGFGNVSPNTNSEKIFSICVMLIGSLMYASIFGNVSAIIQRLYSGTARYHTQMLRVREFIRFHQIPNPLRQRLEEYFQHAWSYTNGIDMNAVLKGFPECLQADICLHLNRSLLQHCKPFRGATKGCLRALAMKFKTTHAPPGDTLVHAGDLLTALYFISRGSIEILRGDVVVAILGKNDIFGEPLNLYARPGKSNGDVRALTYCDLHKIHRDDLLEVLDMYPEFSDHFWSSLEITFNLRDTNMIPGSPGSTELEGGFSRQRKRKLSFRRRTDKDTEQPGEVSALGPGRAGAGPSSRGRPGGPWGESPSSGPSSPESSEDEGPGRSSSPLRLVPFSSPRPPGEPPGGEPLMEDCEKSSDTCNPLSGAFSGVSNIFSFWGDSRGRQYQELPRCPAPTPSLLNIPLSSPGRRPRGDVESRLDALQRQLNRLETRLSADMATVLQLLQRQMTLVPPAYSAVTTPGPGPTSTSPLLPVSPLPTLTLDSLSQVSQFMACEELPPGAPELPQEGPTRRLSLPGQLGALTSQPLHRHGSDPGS
row,SMILES,"hERG current change (%, negative = inhibition) at 10uM [%]"
1,Cc1nn(C(C)C(=O)O)c(C)c1[N+](=O)[O-] (stereo not drawn),12.1
2,O=C(Nc1cccc(Cl)c1)O/N=C\c1ccncc1,5.05
3,CCCCN(CC)CCNC(=O)C1CCN(S(=O)(=O)c2cccc3nsnc23)CC1,-11
4,COC(=O)c1cnc(SC)nc1C,-6.57
5,C=CCNC(=O)[C@@H]1CSC2c3ccc(OC)c(OC)c3C(=O)N21 (stereo partly drawn),16.4
6,C=C(C)CNC(=S)N/N=C/c1c(F)cccc1F,-1.01
7,O=C(Nc1ccncc1)c1cc(S(=O)(=O)N2CCN(c3ccccc3)CC2)ccc1Cl,-48.7
8,CCOC(=O)c1cc(C(C)(C)C)oc1CN,12.1
9,CC(=O)c1ccc(NC(=O)C(C)OC(=O)CCN=C2NS(=O)(=O)c3ccccc32)cc1 (stereo not drawn),12.4
10,O=C(O)CCC(=O)Nc1ccc(-n2ccc(C(F)(F)F)n2)cc1,19.1
11,CCOC(=O)c1cnc(-n2nc(C)cc2C)nc1NNc1nc(-c2ccccc2)cc(-c2ccccc2)n1,-4.64
12,CC(C)c1ccc(/C=N/n2c(-c3ccccc3)n[nH]c2=S)cc1,14.6
13,CC(C)N(CCO)C(=O)CCc1nnc(CCCc2ccccc2)o1,9.35
14,Cc1ccc(NC2CCCN(C(=O)CCc3ccncc3)C2)cc1C (stereo not drawn),-24.5
15,Cc1nc(C)c(Cc2ccccc2Cl)c(=O)[nH]1,0.737
16,O=C(CSc1nnc(Cc2cccs2)n1-c1ccccc1)NC1CCCCC1,-62.5
17,O=C(NCCCN1CCOCC1)c1ccco1,10.9
18,O=C(CSc1nc2ccccc2c(=O)[nH]1)Nc1ccccc1N1CCOCC1,6.66
19,CCOC(=O)c1ccc2c(c1)N(CC(=O)N1CCCCC1)C(=O)C(C)(C)O2,-13.8
20,COc1ccc(C(=O)CC(=O)C(=O)Nc2cc(OC)c(OC)c(OC)c2)cc1,8.58
21,CCC(C(=O)NC1CCCCC1)N(Cc1cccs1)C(=O)CCC(=O)Nc1cc(C)on1 (stereo not drawn),-1.15
22,COc1cc(/C=N/NC2=NS(=O)(=O)c3ccccc32)ccc1OC(C)=O,11
23,COc1ccccc1OCCCOc1c(C)cc(C)cc1Br,-3.55

row,SMILES,"hERG current change (%, negative = inhibition) at 10uM [%]"
1,C#CNC(=O)C1(CC=C)CCNCC1,12.9
2,O=C1CC2(CON=C2c2ccc(F)cc2)C(=O)N1c1ccc(F)cc1 (stereo not drawn),10.7
3,CCC(Oc1ccc(C)c(C)c1)C(=O)N1CCCN(C)CC1 (stereo not drawn),-0.563
4,COc1cc(/C=C(\C#N)C(=O)Nc2cccc(C(=O)O)c2)ccc1OCc1ccc(C)cc1,10.1
5,Cc1ccc(C2SCC(=O)Nc3c2c(=O)[nH]n3C2CCOC(C)(C)C2)cc1 (stereo not drawn),9.84
6,O=S(=O)(Nc1cccc(-c2cn3ccsc3n2)c1)c1ccc(F)cc1,-11.5
7,CCCC(=O)NC(c1ccco1)c1c(O)ccc2ccccc12 (stereo not drawn),-12.9
8,COC(=O)C(Cc1c[nH]c2ccccc12)NC(C)=O (stereo not drawn),11
9,COc1ccc(N(CC(=O)NCC2CCCO2)C(=O)CCC(=O)Nc2nccs2)cc1 (stereo not drawn),14.1
10,N#CCCn1cc(C(=O)Nc2ccccc2Br)c(-c2ccc3c(c2)OCCO3)n1,-6.66
11,CCOC(=O)c1c(C)[nH]c(C(=O)OCC(=O)NCc2ccc(OC)c(OC)c2)c1C,6.99
12,O=C(CSc1nnc(-c2ccccc2F)n1C1CC1)NC(=O)c1cccc([N+](=O)[O-])c1,-52.8
13,O=C(C1=C[C@H](c2coc3ccccc3c2=O)C[C@H](OCc2ccc(CO)cc2)O1)N1CCN(Cc2ccccc2)CC1,-61.7
14,CN(C)C(=O)CSc1nnc(Cc2ccc3c(c2)OCO3)o1,19.3
15,COc1ccc(Br)cc1C(=O)Nc1ccc(Cc2ccncc2)cc1,-2.36
16,Cc1cc(N=Cc2c(O)n(-c3ccc4c(c3)OCO4)c(=O)c3ccccc23)ccn1,-11.8
17,COC(=O)c1ccc(CSc2nnc(NC(C)C)s2)o1,29.8
18,CN1C(=O)CC(N2CCN(Cc3ccc(Cl)cc3)CC2)C1=O (stereo not drawn),2.2
19,c1csc(-c2cn3c(n2)SCC3)c1,-4.81
20,O=C(CN1C(=O)c2ccccc2S1(=O)=O)NC1CC2CCC1C2 (stereo not drawn),2
21,CC(=O)c1cn(CC(=O)NCC2CCCO2)c2ccccc12 (stereo not drawn),9.69
22,CCCCOc1ccc(N(CC(=O)NCC2CCCO2)C(=O)CCC(=O)Nc2cc(C)ccn2)cc1 (stereo not drawn),-35.3
